Data published in patent publication US20220153853A1 (JIANGSU HENGRUI MEDICINE, published 2022).

Columns and labels:
[1] = molecular target: human GCGR (full-length glucagon receptor of 477 amino acids) (human, UniProt P47871 26-477); experiment: cell-based or functional assay
human GLP-1R = human GLP-1R (human, UniProt P43220 24-463); experiment: cell-based or functional assay

UniProt P47871, sequence (P47871 26-477 limits assumed): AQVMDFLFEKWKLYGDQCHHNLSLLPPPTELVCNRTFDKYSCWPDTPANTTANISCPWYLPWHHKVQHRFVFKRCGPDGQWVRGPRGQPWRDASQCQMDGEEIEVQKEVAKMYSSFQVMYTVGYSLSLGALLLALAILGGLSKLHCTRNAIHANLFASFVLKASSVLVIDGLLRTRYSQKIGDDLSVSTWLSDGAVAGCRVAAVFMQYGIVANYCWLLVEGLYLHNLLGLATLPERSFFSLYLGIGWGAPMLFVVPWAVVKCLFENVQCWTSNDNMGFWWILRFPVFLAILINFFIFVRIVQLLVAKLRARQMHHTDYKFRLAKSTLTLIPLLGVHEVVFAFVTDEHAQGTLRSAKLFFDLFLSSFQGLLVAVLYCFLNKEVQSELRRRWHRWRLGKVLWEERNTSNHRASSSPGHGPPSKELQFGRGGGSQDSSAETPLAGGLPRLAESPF

Binder	IC50 [1]	Imax (%) [1]	EC50 (human GLP-1R)	Emax % (human GLP-1R)
hu1803-9B (other) heavy: HGEGTFTSDVSSYLEEEAAKEFIAWLVKGGGGGGGSGGGGSGGGGSEVQLVQSGAEVKKPGASVKVSCKASGYTFTDYWIEWVRQAPGQGLEWMGEILPGSTYTNYNEKFKGRVTMTRDTSTSTVYMELSSLRSEDTAVYYCARGLSTLMAVDYFDYWGQGTTVTVSSASTKGPSVFPLAPCSRSTSESTAALGCLVKDYFPEPVTVSWNSGALTSGVHTFPAVLQSSGLYSLSSVVTVPSSSLGTKTYTCNVDHKPSNTKVDKRV[human IgG4 Fc with S228P F234A L235A (EU numbers) left out] light: DIQMTQSPSSLSASVGDRVTITCRASQDISNYLNWYQQKPGKAVKLLIYYSSTLHSGVPSRFSGSGSGTDYTLTISSLQPEDFATYYCQQTNIFPWTFGGGTKVEIKRTVAAPSVFIFPPSDEQLKSGTASVVCLLNNFYPREAKVQWKVDNALQSGNSQESVTEQDSKDSTYSLSSTLTLSKADYEKHKVYACEVTHQGLSSPVTKSFNRGEC	67 nM	100%	0.22 nM	100%
hu1803-9D (other) heavy: HGEGTFTSDVSSYLEEEAAKEFVAWLVKGGGGGGGSGGGGSGGGGSEVQLVQSGAEVKKPGASVKVSCKASGYTFTDYWIEWVRQAPGQGLEWMGEILPGSTYTNYNEKFKGRVTMTRDTSTSTVYMELSSLRSEDTAVYYCARGLSTLMAVDYFDYWGQGTTVTVSSASTKGPSVFPLAPCSRSTSESTAALGCLVKDYFPEPVTVSWNSGALTSGVHTFPAVLQSSGLYSLSSVVTVPSSSLGTKTYTCNVDHKPSNTKVDKRV[human IgG4 Fc with S228P F234A L235A (EU numbers) left out] light: DIQMTQSPSSLSASVGDRVTITCRASQDISNYLNWYQQKPGKAVKLLIYYSSTLHSGVPSRFSGSGSGTDYTLTISSLQPEDFATYYCQQTNIFPWTFGGGTKVEIKRTVAAPSVFIFPPSDEQLKSGTASVVCLLNNFYPREAKVQWKVDNALQSGNSQESVTEQDSKDSTYSLSSTLTLSKADYEKHKVYACEVTHQGLSSPVTKSFNRGEC	79 nM	100%	0.32 nM	100%
